Some of the results follow.

This assay deals with S. aureus RN4220. As to the kind of experiment: growth inhibition call (relative growth <= 0.2). The conditions noted are these: 50 µM.
For `Cc1ccc(S(=O)(=O)Nc2ccc3c(c2)C(=O)N([C@@H](C)CO)C[C@H](C)[C@H](CN(C)C(=O)Nc2ccc(C(F)(F)F)cc2)O3)cc1`, the growth inhibition call was “inactive”.
The same measure for `OC[C@@H](O)[C@@H](O)CO`: “inactive”.
The same measure for `COc1ccc([C@H]([C@H](Cc2ccccc2)OC(C)=O)N(C/C=C/[C@@H](OC(C)=O)c2ccccc2)[C@@H](Cc2ccccc2)C(OC)OC)cc1`: “inactive”; for `C[C@H](CO)N1C[C@H](C)[C@H](CN(C)S(=O)(=O)c2cn(C)cn2)Oc2c(NC(=O)NC3CCCCC3)cccc2C1=O`: “inactive”.
With `C[C@H](CO)N1C[C@H](C)[C@@H](CN(C)C(=O)Nc2ccc(C(C)(C)C)cc2)OCc2cn(nn2)CCCC1=O` the entry was “inactive”; with `CC(C)N(CCOc1c(Br)cc(/C=C/C(=O)NCCCOc2c(Br)cc(CCN(C)C)cc2Br)cc1Br)C(C)C`, “inactive”.
As for `O=C(NO)c1cn(CC(=O)N2CCC3(CC2)C(=O)NCN3c2ccccc2)nn1`, the growth inhibition call is “inactive”.
Consider `CC(=O)O[C@@H](C)C[N+](C)(C)C`, for which the growth inhibition call is “inactive”.
The same measure for `CC(=O)N1CCn2nncc2C[C@@]1(C)C1CC1`: “inactive”; for `Cc1cccc(S(=O)(=O)N2C[C@@H](O)COC[C@H]3O[C@@H](CC(=O)NCCCN4CCOCC4)CC[C@@H]32)c1`: “inactive”; for `Cc1noc(C)c1S(=O)(=O)Nc1ccc2c(c1)C(=O)N([C@H](C)CO)C[C@H](C)[C@H](CN(C)Cc1ccncc1)O2`: “inactive”.
As for `CN1CCN(C(=O)C[C@@H]2CC[C@H]3[C@@H](COC[C@@H](O)CN3C(=O)C3CCCC3)O2)CC1`, the growth inhibition call is “inactive”.
With `O=C(C[C@@H]1CC[C@@H]2[C@H](COC[C@@H](O)CN2C(=O)c2ccccn2)O1)NC1CCC1` the entry was “inactive”; with `Cc1noc(C)c1S(=O)(=O)N(C)C[C@@H]1Oc2ccc(NC(=O)CCC(F)(F)F)cc2CC(=O)N([C@H](C)CO)C[C@@H]1C`, “inactive”.
Take `C[C@@H]1CCCCO[C@H](CN(C)S(=O)(=O)c2cccs2)[C@H](C)CN([C@@H](C)CO)C(=O)c2cc(NC(=O)NC3CCCCC3)ccc2O1`: the growth inhibition call was “inactive”.
For `C[C@H](NC(=O)N(C)C[C@H]1OCc2ccccc2-c2ccccc2C(=O)N([C@@H](C)CO)C[C@H]1C)c1ccccc1`, the growth inhibition call is “inactive”.
The same measure for `C[C@@H]1CCCCO[C@@H](CN(C)S(=O)(=O)c2ccc(F)cc2)[C@@H](C)CN([C@@H](C)CO)C(=O)c2cc(NC(=O)Cc3ccccc3)ccc2O1`: “inactive”.
The same measure for `C[C@@H]1CCCCO[C@@H](CN(C)C(=O)NC2CCCCC2)[C@@H](C)CN([C@H](C)CO)C(=O)c2cc(NC(=O)CCC(F)(F)F)ccc2O1`: “inactive”.
With `COc1ccc(S(=O)(=O)Nc2cccc3c2O[C@@H](CN(C)S(=O)(=O)c2cn(C)cn2)[C@@H](C)CN([C@H](C)CO)C3=O)cc1` the entry was “inactive”; with `COc1ccc(S(=O)(=O)N(C)C[C@H]2Oc3ccc(NC(=O)CCC(F)(F)F)cc3CC(=O)N([C@@H](C)CO)C[C@@H]2C)cc1`, “inactive”.
